Results published in the supplement of paper PMC10126150.
Values marked as one replicate rest on one cluster of the flow cell; about a third of the high ones do not repeat.

Tested on: ATP
Test: switch fluorescence ratio, 500 uM ATP over buffer (Cy3 cluster intensity, sum of 5 cycles each) (fold (ratio)); higher = stronger signal-on switching upon ATP binding; sequences stand for … in TCGTCGGCAGCGTCAGATGTGTATAAGAGACAGTTTTTTTTTTTTTTTTTTTTTTTTT…TC
Conditions: aptamer strand: ATP DNA aptamer (quencher-CACCTGGGGGAGTATTGCGGAGGAAGG + anchor), 100 nM annealed; ATP concentration: 500 uM; one replicate
Procedure, shortened: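 The quencher-labelled ATP aptamer, at 100 nM, was annealed to Cy3-labelled switching-strand clusters on a modified Illumina MiSeq flow-cell. The clusters were imaged in selection buffer, then after 15 min with 500 uM ATP at 22 °C, and this buffer/ATP cycle ran five times with NaOH stripping and re-annealing between runs. Per-cluster fluorescence ratios, summed target-cycle over summed buffer-cycle Cy3 intensity, were averaged per switch-domain sequence. Clusters outside 100-1000 RFU were excluded.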
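Further: ATP exposure 15 min at 22 °C before imaging.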

Sequence	switch fluorescence ratio
GCGAGGCGGC	0.993
GAATGCCGCA	1.05
TAAATTACCA	1.03
CGCAGGGGAA	1.02
TCTTGGAGAT	1.02
CGCCGCCACG	1.65
CGACGAATGG	1.37
GACCAGGGTT	1.02
TAGTTAACCA	1.03
GGGTTACTAA	1.04
TTCCATTAAT	1.03
TGACGCGCGG	0.988
CTTAGTG	0.971
AGCTACGACG	1.15
AAATGCACTA	1.04
CCAACACCCG	1.12
AGAGCCGTTA	1.13
TCCAGCGAGC	1.04
GCTGTGAGAG	1.02
TCGGAATTTG	1.09
CAAGTCAATT	0.979
GTTGGGATAG	0.998
GGCCCCTATC	1.03
GGCCGAATCC	0.977
ATCAGTTATA	0.966

Sequence	switch fluorescence ratio
CAGCGAGAT	1.07
CGGACACGAG	1.05
TCTTGGGTGG	0.999
AAAGCGTTCC	2.57
CTACACGCAG	1.07
TTCTTATTCT	0.96
CTTTGGCAGG	1.01
GTCGTTCAGC	0.973
GTTAGTATGA	1
CGCACAGACT	3.01
GTAGGCAGGG	1.02
AAAAACCCTA	1.04
GTATAAGCAG	1
GACGTCGTCA	0.984
AACTACGTGG	1.01
TGCCTATCGC	1.04
CGTTGTGTGG	0.976
CCATTGTCGG	1.05
CCCGACTTCT	1.05
AAGCGAACCG	1.06
GGAGGTGTCG	1.1
CTAGCAGTGC	1.71
CACTTAAAGA	0.992
ATCTATGTCC	0.997
GCTGGATTGT	1.06

Sequence	switch fluorescence ratio
TGCTGATCCT	1.01
GAAACGCCAG	0.981
CCTAGGGGA	1.04
CTACAAGTAC	1.62
GGGGCCCCTG	1.32
GCCGACAAAA	1.4
TTAGTAAACT	0.99
ATCGATCAGC	1.03
CTATCTACAA	1.07
CGTCTGATTC	1.05
TAGCAACAGT	1.01
GGGTGGCCCA	0.972
TGGACTGATT	0.997
CAATCTCGTT	1
AACGAAAGAG	1.03
GACCTCTCCT	1.8
AGGGTGCACA	0.991
ATTAAGATGC	1.02
TCCAAGATTA	1.03
GTGATGGCGG	0.989
GCGATAGTTC	1.05
TTAGACCCGG	0.981
CTTTCCGTTT	1.02
GTCATGTGCA	1
CCCACCTAG	1.04

Sequence	switch fluorescence ratio
ATCATCACTA	1.01
GAACGGGGTA	1.03
CCCATGAGGT	1.03
GGCTATTTCC	1.51
GGTCAACGCA	1.03
TCGGACCCCT	1.18
ACTGGTGAAA	1.05
GTGTACGGTA	1.1
TCAAAGATTG	1
TACGCTTCAA	1.01
ATACCGGCAT	0.982
AAGAACGTGG	0.993
GTTTGAAGCA	0.999
CTATGTAAGA	0.987
TAATCATTTG	0.99
GAGGAGCGGA	1.07
GAAGTGAGAG	1.04
GGGCCCACCA	0.97
ACGACACACT	1.59
TAAGATCATG	0.984
GTGGAAGTCT	1.06
CGTCAACTGA	1.02
GGATGACACT	0.958
GAATTCCCAT	1.01
ATTAAGATG	0.977

Sequence	switch fluorescence ratio
TAAACGGATT	1.02
GGACTGTATA	1.11
CTCGTGAGCA	1.05
GGTGTGATGA	0.994
CGAATTCACT	1.01
GGCACTATCA	1.01
AACTCTAGGG	0.989
TTTATGGCAC	1.07
ACCTGGAATG	1.02
TGGTCCCCCA	0.954
ATCCTGTGTT	0.974
AGTTTGGAGA	1.01
CACGGGATTA	0.986
AAGATGTTA	1.03
TAGGAAAAGA	1.01
TATGGTTCTG	1.01
TGCAGCAGG	1.19
GGGCGGGCGA	1.05
CAAACGCTTG	1.03
TGCGGGAACC	1.02
CGCTCCTATG	0.982
ATGGGTATAC	1.01
AGATGAGACG	1
GGTTTGGAAA	0.924
GAGTCCGTTG	1.09

Sequence	switch fluorescence ratio
TTGTATGTGC	0.995
TGCTCGCCCG	1.01
TGACGTATTT	1.05
CGTTGGAACT	1.01
TATCAAGGT	0.965
CCCGAGACAG	1.01
CTAACCCTAC	1.26
ATTCCCGCGG	1.03
AGCAGGACCT	1.05
TATGCATATC	1.06
AAAATTAGCT	1.03
ACCGGAGGCG	1.02
TTCGTACTC	1.03
AGTACTAGAC	1.06
GCTAGTTGTC	0.861
ACAATTCCGA	1.05
CTACGATTCG	1.03
AACGTCATTC	1.05
TTGGTCAGCA	1.1
CTTGATCTCA	0.963
TACCTCGAGC	0.956
GAAGCAGGGT	1.03
CCGAGTGAGG	1.02
AAAGGGAGTT	0.989
ATGAATTAGT	1

Sequence	switch fluorescence ratio
GTTGTTATGA	1.02
GTTTGTAGTC	1.02
AATACCAGGG	1.17
TTCCAAGTGT	1.05
AGTCCGTGCA	1.02
CGGAACGGCG	0.988
ACCCTTCTAG	1.06
TCCAATAGTT	0.986
CGGGTGGCTA	0.982
TTTGTAATGT	1
GTTCTTGGCG	0.982
AGAGCCATAC	3.74
GAAAAACAGC	1.02
TGAACACGCT	1.02
TGTGAGTCAT	0.962
TCAAATTAAT	0.993
CAGGAAAAGT	1.01
GGGCGGGA	1.02
TGAGTGACGC	1.01
CATTCTCACC	1.06
CCCGGAAGGG	1.16
TACTGTAACG	1.18
GGGCCAGCTA	1.06
ATCGCCTACT	1.04
CTTGACGCTA	1.8

Sequence	switch fluorescence ratio
AAGTCAGCGT	0.978
GCTCTAGCCT	1.01
AGCTAACCGG	1
TCAAAGATTT	1.03
CCATGGAGGG	1.03
AAATATCTAA	1.01
AAGAGAAACA	1.07
TCAATCATGA	1.06
AGATTCTAGT	1
GGGGGCCCAT	1.04
TCGGCTCCCT	1.05
AGTGGCTTGC	0.985
GCGTGGCGTA	0.992
GTAATCGTCG	0.985
GTTCTGACCG	1.11
AGGACTTTTA	1
ATCCATGTTG	1.02
AAGTAAGAGG	0.959
CCGCTGACAT	2.33
GAGGTATGAG	0.997
GATCTTTTGT	0.955
TTCGGTGGT	1.26
GACCTTCCAT	1.62
TCACAACATT	1.07
ACCATTGTTT	0.998
